Measurements reported in patent US20200277339A1 (GENOME PROTECTION, published 2020).

B1: CBLB502 variant 470CT (ligand)
chain: MAQVINTNSLSLLTQNNLNKSQSSLSSAIERLSSGLRINSAKDDAAGQAIANRFTSNIKGLTQASRNANDGISIAQTTEGALNEINNNLQRVRELSVQATNGTNSDSDLKSIQDEIQQRLEEIDRVSNQTQFNGVKVLSQDNQMKIQVGANDGETITIDLQKIDVKSLGLDGFNVNSPGISGGGGGILDSMGTLINEDAAAAKKSTANPLASIDSALSKVDAVRSSLGAIQNRFDSAITNLGNTVTNLNSARSRIEDADYALVPRGSHHHHHHG
B2: CBLB502-S33 (ligand)
chain: MRGSHHHHHHGMASMTGGQQMGRDLYDLVPRGSAKDPSGLRINSAKDDAAGQAIANRFTSNIKGLTQASRNANDGISIAQTTEGALNEINNNLQRVRELSVQATNGTNSDSDLKSIQDEIQQRLEEIDRVSNQTQFNGVKVLSQDNQMKIQVGANDGETITIDLQKIDVKSLGLDGFNVNSPGISGGGGGILDSMGTLINEDAAAAKKSTANPLASIDSALSKVDAVRSSLGAIQNRFDSAITNLGNTVTNLNSARSRIEDADYATEVSNMSKAQILQQAGTSVLAQANQVPQNVLSLLR
B3: CBLB502 variant 33CT (ligand)
chain: MSGLRINSAKDDAAGQAIANRFTSNIKGLTQASRNANDGISIAQTTEGALNEINNNLQRVRELSVQATNGTNSDSDLKSIQDEIQQRLEEIDRVSNQTQFNGVKVLSQDNQMKIQVGANDGETITIDLQKIDVKSLGLDGFNVNSPGISGGGGGILDSMGTLINEDAAAAKKSTANPLASIDSALSKVDAVRSSLGAIQNRFDSAITNLGNTVTNLNSARSRIEDADYATEVSNMSKAQILQQAGTSVLAQANQVPQNVLSLLVPRGSHHHHHHG
B4: CBLB502 variant 37CT (ligand)
chain: MINSAKDDAAGQAIANRFTSNIKGLTQASRNANDGISIAQTTEGALNEINNNLQRVRELSVQATNGTNSDSDLKSIQDEIQQRLEEIDRVSNQTQFNGVKVLSQDNQMKIQVGANDGETITIDLQKIDVKSLGLDGFNVNSPGISGGGGGILDSMGTLINEDAAAAKKSTANPLASIDSALSKVDAVRSSLGAIQNRFDSAITNLGNTVTNLNSARSRIEDADYATEVSNMSKAQILQQAGTSVLAQANQVPQNVLSLLVPRGSHHHHHHGMA
B5: CBLB502 variant N45 (ligand)
chain: MRGSHHHHHHGMASMTGGQQMGRDLYDLVPRGSAKDPAGQAIANRFTSNIKGLTQASRNANDGISIAQTTEGALNEINNNLQRVRELSVQATNGTNSDSDLKSIQDEIQQRLEEIDRVSNQTQFNGVKVLSQDNQMKIQVGANDGETITIDLQKIDVKSLGLDGFNVNSPGISGGGGGILDSMGTLINEDAAAAKKSTANPLASIDSALSKVDAVRSSLGAIQNRFDSAITNLGNTVTNLNSARSRIEDADYATEVSNMSKAQILQQAGTSVLAQANQVPQNVLSLLR
B6: CBLB502 variant 45CT (ligand)
chain: MAGQAIANRFTSNIKGLTQASRNANDGISIAQTTEGALNEINNNLQRVRELSVQATNGTNSDSDLKSIQDEIQQRLEEIDRVSNQTQFNGVKVLSQDNQMKIQVGANDGETITIDLQKIDVKSLGLDGFNVNSPGISGGGGGILDSMGTLINEDAAAAKKSTANPLASIDSALSKVDAVRSSLGAIQNRFDSAITNLGNTVTNLNSARSRIEDADYATEVSNMSKAQILQQAGTSVLAQANQVPQNVLSLLVPRGSHHHHHHGMASMTGGQQMGRDLYDDDDKDP
B7: CBLB502 variant 33-485 (ligand)
chain: MRGSHHHHHHGMASMTGGQQMGRDLYDLVPRGSAKDPSGLRINSAKDDAAGQAIANRFTSNIKGLTQASRNANDGISIAQTTEGALNEINNNLQRVRELSVQATNGTNSDSDLKSIQDEIQQRLEEIDRVSNQTQFNGVKVLSQDNQMKIQVGANDGETITIDLQKIDVKSLGLDGFNVNSPGISGGGGGILDSMGTLINEDAAAAKKSTANPLASIDSALSKVDAVRSSLGAIQNRFDSAITNLGNTVTNLNSARSRIEDADYATEVSNMSKAQILQQAG
B8: CBLB502 variant 33ML (ligand)
chain: MSGLRINSAKDDAAGQAIANRFTSNIKGLTQASRNANDGISIAQTTEGALNEINNNLQRVRELSVQATNGTNSDSDLKSIQDEIQQRLEEIDRVSNQTQFNGVKVLSQDNQMKIQVGANDGETITIDLQKIDVKSLGLDGFNVNSPGSTANPLASIDSALSKVDAVRSSLGAIQNRFDSAITNLGNTVTNLNSARSRIEDADYATEVSNMSKAQILQQAGTSVLAQANQVPQNVLSLLVPRGSHHHHHHG
B9: CBLB502 variant MF227N (ligand)
chain: MSGLRINSAKDDAAGQAIANRFTSNIKGLTQASRNANDGISIAQTTEGALNEINNNLQRVRELSVQATNGTNSDSDLKSIQDEIQQRLEEIDRVSNQTQFNGVKVLSQDNQMKIQVGANDGSPGSTANPLASIDSALSKVDAVRSSLGAIQNRFDSAITNLGNTVTNLNSARSRIEDADYATEVSNMSKAQILQQAGTSVLAQANQVPQNVLSLLVPRGSHHHHHHG
B10: CBLB502-485CT (ligand)
chain: MSGLRINSAKDDAAGQAIANRFTSNIKGLTQASRNANDGISIAQTTEGALNEINNNLQRVRELSVQATNGTNSDSDLKSIQDEIQQRLEEIDRVSNQTQFNGVKVLSQDNQMKIQVGANDGETITIDLQKIDVKSLGLDGFNVNSPGSTANPLASIDSALSKVDAVRSSLGAIQNRFDSAITNLGNTVTNLNSARSRIEDADYATEVSNMSKAQILQQAGLVPRGSHHHHHHG
B11: CBLB502 variant SY3CT (ligand)
chain: MSGLRINSAKDDAAGQAIANRFTSNIKGLTQASRNANDGISIAQTTEGALNEINNNLQRVRELSVQATNGTNSDSDLKSIQDEIQQRLEEIDRVSNQTQFNGVKVLSQDNQMKIQVGANDGETITIDLQKIDVKSLGLDGFNVNSPGSTANPLASIDSALSKVDAVRSSLGAIQNRFDSAITNLGNTVTNLNSARSRIEDADYALVPRGSHHHHHHG
B12: CBLB502 variant NGD1 (ligand)
chain: MSKGEELFTGVVPILVELDGDVNGHKFSVSGEGEGDATYGKLTLKFICTTGKLPVPWPTLVTTLTYGVQCFSRYPDHMKRHDFFKSAMPEGYVQERTISFKDDGNYKTRAEVKFEGDTLVNRIELKGIDFKEDGNILGHKLEYNYNSHNVYITADKQGLSGRIMSGLRINSAKDDAAGQAIANRFTSNIKGLTQASRNANDGISIAQTTEGALNEINNNLQRVRELSVQATNGTNSDSDLKSIQDEIQQRLEEIDRVSNQTQFNGVKVLSQDNQMKIQVGANDGETITIDLQKIDVKSLGLDGFNVNSPGSTANPLASIDSALSKVDAVRSSLGAIQNRFDSAITNLGNTVTNLNSARSRIEDADYALVPRGSHHHHHHG
B13: CBLB502 variant CPM217 (ligand)
chain: MSTANPLASIDSALSKVDAVRSSLGAIQNRFDSAITNLGNTVTNLNSARSRIEDADYASPGSGLRINSAKDDAAGQAIANRFTSNIKGLTQASRNANDGISIAQTTEGALNEINNNLQRVRELSVQATNGTNSDSDLKSIQDEIQQRLEEIDRVSNQTQFNGVKVLSQDNQMKIQVGANDGETITIDLQKIDVKSLGLDGFNVNLVPRGSHHHHHHG
B14: CBLB502 mutant MIXN (ligand)
chain: MSGLRINSAKDDAAGQAIANRFTSNIKGLTQASRNAADGISIAQTTEGALNEINNNLQRVRELSVQATNGTNSDSDLKSIQDEIQQRLEEIDRVSNQTQANGVKVLSQDNAMKIQVGANDGAAITIDLQKIDVKSLGLDGFNVNSPGSTANPLASIDSALSKVDAVRSSLGAIQNRFDSAITNLGNTVTNLNSARSRIEDADYATEVSNMSKAQILQQAGTSVLAQANQVPQNVLSLLVPRGSHHHHHHG
B15: CBLB502 mutant ME42 (ligand)
chain: MSGLRINSAKADAGGQAIANRFTSNIKGLTQASRNANDGISIAQTTEGALNEINNNLQRVRELSVQATNGTNSDSDLKSIQDEIQQRLEEIDRVSNQTQFNGVKVLSQDNQMKIQVGANDGETITIDLQKIDVKSLGLDGFNVNSPGSTANPLASIDSALSKVDAVRSSLGAIQNRFDSAITNLGNTVTNLNSARSRIEDADYATEVSNMSKAQILQQAGTSVLAQANQVPQNVLSLLVPRGSHHHHHHG
B16: CBLB502 mutant ME100 (ligand)
chain: MSGLRINSAKDDAAGQAIANRFTSNIKGLTQASRNANDGISIAQTTEGALNEINNNLQRVRELSVQATAGANSDSDLKSIQDEIQQRLEEIDRVSNQTQFNGVKVLSQDNQMKIQVGANDGETITIDLQKIDVKSLGLDGFNVNSPGSTANPLASIDSALSKVDAVRSSLGAIQNRFDSAITNLGNTVTNLNSARSRIEDADYATEVSNMSKAQILQQAGTSVLAQANQVPQNVLSLLVPRGSHHHHHHG
B17: CBLB502 mutant ME104 (ligand)
chain: MSGLRINSAKDDAAGQAIANRFTSNIKGLTQASRNANDGISIAQTTEGALNEINNNLQRVRELSVQATNGTNADAALKSIQDEIQQRLEEIDRVSNQTQFNGVKVLSQDNQMKIQVGANDGETITIDLQKIDVKSLGLDGFNVNSPGSTANPLASIDSALSKVDAVRSSLGAIQNRFDSAITNLGNTVTNLNSARSRIEDADYATEVSNMSKAQILQQAGTSVLAQANQVPQNVLSLLVPRGSHHHHHHG
B18: CBLB502 mutant ME110 (ligand)
chain: MSGLRINSAKDDAAGQAIANRFTSNIKGLTQASRNANDGISIAQTTEGALNEINNNLQRVRELSVQATNGTNSDSDLKAIQAEIQQRLEEIDRVSNQTQFNGVKVLSQDNQMKIQVGANDGETITIDLQKIDVKSLGLDGFNVNSPGSTANPLASIDSALSKVDAVRSSLGAIQNRFDSAITNLGNTVTNLNSARSRIEDADYATEVSNMSKAQILQQAGTSVLAQANQVPQNVLSLLVPRGSHHHHHHG
B19: CBLB502 mutant ME117 (ligand)
chain: MSGLRINSAKDDAAGQAIANRFTSNIKGLTQASRNANDGISIAQTTEGALNEINNNLQRVRELSVQATNGTNSDSDLKSIQDEIQARLAEIDRVSNQTQFNGVKVLSQDNQMKIQVGANDGETITIDLQKIDVKSLGLDGFNVNSPGSTANPLASIDSALSKVDAVRSSLGAIQNRFDSAITNLGNTVTNLNSARSRIEDADYATEVSNMSKAQILQQAGTSVLAQANQVPQNVLSLLVPRGSHHHHHHG

Assays:
[1] = molecular target: TLR5 of the cell-based reporter assays; experiment: cell-based or functional assay
[2] = molecular target: TLR5 of the cell-based reporter assays; experiment: cell-based or functional assay; remark: listed apart in the source

Row | Binder | Relative EC50 vs 502, Signaling (LecZ) [1] | Relative EC50 vs 502, Signaling (Luc) [1] | Signaling EC50 Normalized by CBLB502 [2]
1 | B1 | 38 fold vs 502 | 44 fold vs 502 | 
2 | B2 |  | 1.4 fold vs 502 | 
3 | B3 |  | 2.3 fold vs 502 | 
4 | B4 |  | 3.2 fold vs 502 | 
5 | B5 |  | 3.6 fold vs 502 | 
6 | B6 |  | 3.5 fold vs 502 | 
7 | B7 |  | 11 fold vs 502 | 
8 | B8 | 1.3 fold vs 502 | 1.5 fold vs 502 | 
9 | B9 | 159 fold vs 502 |  | 
10 | B10 | 1.2 fold vs 502 |  | 
11 | B11 | 16 fold vs 502 |  | 
12 | B12 | 58 fold vs 502 |  | 
13 | B13 | 1110 fold vs 502 |  | 
14 | B14 |  |  | 1.5 fold vs CBLB502
15 | B15 |  |  | 1.3 fold vs CBLB502
16 | B16 |  |  | 0.6 fold vs CBLB502
17 | B17 |  |  | 1 fold vs CBLB502
18 | B18 |  |  | 0.7 fold vs CBLB502
19 | B19 |  |  | 0.8 fold vs CBLB502
